# Measured values: PMC4336329 (PLoS ONE, 2015)
# The whole screen tested about 310,000 compounds, of which about 14,000 (4.5%) showed an effect of 50% or more. Effects have a minus sign here. Some of the results follow.
# Molecular target: human ether-à-go-go-related gene (hERG) potassium channel (human, UniProt Q12809)
# Experiment: primary screen, population patch clamp on CHO cells stably expressing hERG
# 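Also: peak tail current of the secondary pulse compared with the same well before compound.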
# human ether-à-go-go-related gene (hERG) potassium channel, sequence (Q12809 whole entry, looked up): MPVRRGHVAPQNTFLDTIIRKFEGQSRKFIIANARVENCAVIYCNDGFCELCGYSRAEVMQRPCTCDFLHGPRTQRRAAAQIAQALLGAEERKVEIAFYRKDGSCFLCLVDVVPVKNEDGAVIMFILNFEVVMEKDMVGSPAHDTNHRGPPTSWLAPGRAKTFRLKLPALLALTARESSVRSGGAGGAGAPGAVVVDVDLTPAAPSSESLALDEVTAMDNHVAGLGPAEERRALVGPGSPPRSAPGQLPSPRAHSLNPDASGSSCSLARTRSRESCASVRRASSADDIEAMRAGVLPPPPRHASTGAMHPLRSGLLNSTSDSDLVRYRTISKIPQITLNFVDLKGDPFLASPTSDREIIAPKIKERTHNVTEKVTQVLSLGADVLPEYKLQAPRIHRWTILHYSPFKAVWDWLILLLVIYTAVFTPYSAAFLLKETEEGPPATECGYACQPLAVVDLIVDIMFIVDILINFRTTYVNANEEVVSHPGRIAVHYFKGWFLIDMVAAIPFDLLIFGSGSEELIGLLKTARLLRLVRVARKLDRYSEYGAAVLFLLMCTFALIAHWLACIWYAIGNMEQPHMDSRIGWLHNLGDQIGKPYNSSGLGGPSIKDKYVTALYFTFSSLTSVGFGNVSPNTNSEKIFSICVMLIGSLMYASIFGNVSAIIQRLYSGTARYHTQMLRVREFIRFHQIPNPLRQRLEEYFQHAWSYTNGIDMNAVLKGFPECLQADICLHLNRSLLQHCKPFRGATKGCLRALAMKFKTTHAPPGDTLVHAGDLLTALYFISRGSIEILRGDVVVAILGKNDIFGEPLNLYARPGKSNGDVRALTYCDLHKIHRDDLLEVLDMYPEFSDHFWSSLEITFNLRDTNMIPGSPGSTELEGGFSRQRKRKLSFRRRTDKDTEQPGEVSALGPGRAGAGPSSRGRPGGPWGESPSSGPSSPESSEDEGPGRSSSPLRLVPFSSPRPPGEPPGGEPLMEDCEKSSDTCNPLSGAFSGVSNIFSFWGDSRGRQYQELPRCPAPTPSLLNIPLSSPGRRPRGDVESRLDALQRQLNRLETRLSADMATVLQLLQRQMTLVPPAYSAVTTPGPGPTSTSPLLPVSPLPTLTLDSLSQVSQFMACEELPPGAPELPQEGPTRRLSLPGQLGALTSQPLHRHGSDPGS
row,SMILES,"hERG current change (%, negative = inhibition) at 10uM [%]"
1,CCCNC(=S)NC1CCCC1,-15.1
2,O=C(NCc1ccccc1)C(c1ccc(F)cc1)N(C(=O)c1csnn1)c1ccccc1 (centres unmarked),17
3,CC1CN(C(=O)CCNC(=O)c2ccc(Br)cc2)CC(C)O1 (centres unmarked),-4.12
4,O=[N+]([O-])c1ccc2nc(-c3ccccc3)n(OCc3ccc(Cl)cc3)c2c1,3.68
5,CC1(c2ccccc2)NC(=O)N(NC(=O)CSc2n[nH]c(N)n2)C1=O (centres unmarked),25.3
6,COc1ccc(Nc2nc3cc(C)ccc3cc2C#N)c(OC)c1,8.19
7,Clc1cc2c(nn1)Nc1ccccc1S2,-0.181
8,CC1=CC(C)(C)N(C(=O)CN2C(=O)c3ccccc3C2=O)c2ccc(C)cc21,-2.01
9,Nc1nc2n(n1)C(c1ccco1)CC(c1ccc(Cl)c(Cl)c1)N2 (centres unmarked),-31.4
10,COc1ccc(CC(=O)Nc2ccc(S(=O)(=O)N(C)C3CCN(C)CC3)cc2)cc1,0.167
11,O=C(NC1CCS(=O)(=O)C1)/C(=C\c1ccccc1)NC(=O)c1ccccc1 (centres unmarked),-11
12,CCCCN(Cc1ccco1)S(=O)(=O)c1csc(C(N)=O)c1,2.8
13,COc1ccc(C(CC(=O)O)NC(C)=O)cc1OC (centres unmarked),10.4
14,COc1cc(/C=C2/S/C(=N/S(=O)(=O)Cc3ccccc3)NC2=O)c([N+](=O)[O-])cc1OC,8.72
15,CCOCCCNc1nc(C)nc2c1nnn2Cc1c(F)cccc1Cl,-9.65
16,Cn1cccc1C(=O)NC(=O)COC(=O)c1cc([N+](=O)[O-])ccc1Cl,12.4
17,COC(=O)c1ccc2c(=O)n(Cc3ccc(C(=O)NCCCN4CCOCC4)cc3)c(=S)[nH]c2c1,14.7
18,Cc1cccc(OCC(=O)N2CCN(Cc3ccc([N+](=O)[O-])cc3)CC2)c1.O=C(O)C(=O)O,-73
19,COC(=O)c1cc(CN2C(=O)c3ccccc3C2=O)c(O)c([N+](=O)[O-])c1,18.4
20,Cc1ccc(S(=O)(=O)N2CCOCC2)s1,13.3
21,CN1CCN(C(=O)/C=C/c2ccccc2)CC1,4.5
22,CCc1ccccc1NC(=O)c1ccc2snnc2c1,-4.77

row,SMILES,"hERG current change (%, negative = inhibition) at 10uM [%]"
1,COc1cc(/C=C/C(=O)N2CC(C)OC(C)C2)cc(OC)c1OC (centres unmarked),18.6
2,CN1C(=O)C(CC(=O)NC2CCCCC2)N(C)C1=O (centres unmarked),17.3
3,O=C1OC(N2C(=O)CC[C@H]2C(=O)Nc2ccc(F)c(F)c2)c2ccccc21 (some centres unmarked),5.46
4,O=C(Nc1cccc(S(=O)(=O)NC2=NCCC2)c1)c1cnc(Cl)c(Cl)c1,0.368
5,CC(NC(=O)C(=O)NN=C1CCCC1)c1ccccc1 (centres unmarked),16.5
6,O=S(=O)(c1cccs1)N1CCN(c2ccccc2Cl)CC1,9.51
7,COc1ccc(NC(=O)CSc2nc3c(c(-c4cccs4)c2C#N)CN(C)CC3)cc1OC,1.65
8,COc1cc(C=C(c2nc3ccccc3s2)c2nc3ccccc3s2)ccc1O,16.2
9,CC(=O)c1cnc2c(-c3ccccc3)c(C(F)(F)F)nn2c1C,10
10,Cc1cc(=O)oc2c3c(cc(OCC(=O)N4CCC[C@H]4C(=O)O)c12)OC(C)(C)CC3,4.73
11,CCN(CC)S(=O)(=O)c1cc(C(=O)Nc2nncs2)c(Cl)cc1Cl,-21
12,O=C(COC(=O)Cc1ccc(S(=O)(=O)N2CCOCC2)s1)NCc1ccccc1,-18.6
13,COc1ccccc1NC(=O)c1ccc(NC2=NC3CS(=O)(=O)CC3S2)cc1 (centres unmarked),24.8
14,COc1ccc(-c2nnn(CC(=O)N(CCCN3CCOCC3)C(C(=O)NC3CCCC3)c3ccco3)n2)cc1 (centres unmarked),-40.3
15,O=C(NNC(=O)c1cc2ccccc2cc1O)Nc1ccccc1F,14.4
16,O=C1CN(C(=O)COC(=O)c2ccccc2O)c2ccccc2N1,-2.67
17,CCOc1ccc(S(=O)(=O)NCc2ccncc2)cc1NC(=O)c1ccccc1F,21.1
18,Cc1ccc(OCCCC(=O)Nc2ccc3c(c2)OCO3)cc1,5.14
19,COc1ccc(Nc2nc(N)nc(CN3CCC(Cc4ccccc4)CC3)n2)cc1,-79
20,COc1ccc(N2CCN(C(=O)c3ccc(CS(=O)(=O)c4ccccc4C)o3)CC2)cc1,-21.5
21,O=C(COC(=O)CN=C1NS(=O)(=O)c2ccccc21)Nc1ccccc1OC(F)F,3.22
22,Cc1cc(C)nc(SCc2nnc(SCC(N)=O)n2Cc2ccco2)n1,-7.19
